# Source: the supplement of paper PMC8728848
# Some of the results follow.
# Legend:
# Test in all cases: glycan array binding signal (z-score within array); higher = stronger binding
# Conditions in all cases: glycan notation: IUPAC condensed, linker removed
# [1] = biological target: Neu5Ac(a2-3)[GalNAc(b1-4)]Gal(b1-4)Glc
# Procedure, shortened: (§1)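 Columns mapping to the same glycan were averaged after glycan names were converted to IUPAC-condensed notation. The data come from 3228 arrays in the Consortium for Functional Glycomics database, limited to those with an available protein sequence. Binding is reported as a within-array Z-score averaged across arrays of one protein sequence and across linkers.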
# [2] = biological target: Neu5Ac(a2-3)[GalNAc(b1-4)]Gal(b1-4)GlcNAc
# Procedure, shortened: as §1
# [3] = biological target: Neu5Ac(a2-3)[GalNAc(b1-4)]Gal(b1-4)GlcNAc(b1-3)GalNAc
# Procedure, shortened: as §1
# [4] = biological target: Neu5Ac(a2-3)[Neu5Ac(a2-6)]GalNAc
# Procedure, shortened: as §1
# Neu5Ac(a2-6)Gal = biological target: Neu5Ac(a2-6)Gal
# Procedure, shortened: as §1
# [5] = biological target: Neu5Ac(a2-6)Gal(b1-3)GlcNAc(b1-3)[Gal(b1-4)GlcNAc(b1-6)]Gal(b1-4)Glc
# Procedure, shortened: as §1
# Neu5Ac(a2-6)Gal(b1-4)Glc = biological target: Neu5Ac(a2-6)Gal(b1-4)Glc
# Procedure, shortened: as §1
# [6] = biological target: Neu5Ac(a2-6)Gal(b1-4)GlcNAc
# Procedure, shortened: as §1
# [7] = biological target: Neu5Ac(a2-6)Gal(b1-4)GlcNAc(b1-2)Man(a1-3)Man(b1-4)GlcNAc(b1-4)GlcNAc
# Procedure, shortened: as §1
# [8] = biological target: Neu5Ac(a2-6)Gal(b1-4)GlcNAc(b1-2)Man(a1-3)[Gal(b1-4)GlcNAc(b1-2)Man(a1-6)]Man(b1-4)GlcNAc(b1-4)GlcNAc
# Procedure, shortened: as §1
# [9] = biological target: Neu5Ac(a2-6)Gal(b1-4)GlcNAc(b1-2)Man(a1-3)[GlcNAc(b1-2)Man(a1-6)]Man(b1-4)GlcNAc(b1-4)GlcNAc
# Procedure, shortened: as §1
# [10] = biological target: Neu5Ac(a2-6)Gal(b1-4)GlcNAc(b1-2)Man(a1-3)[GlcNAc(b1-2)Man(b1-4)GlcNAc(b1-2)Man(a1-6)]Man(b1-4)GlcNAc(b1-4)GlcNAc
# Procedure, shortened: as §1
# [11] = biological target: Neu5Ac(a2-6)Gal(b1-4)GlcNAc(b1-2)Man(a1-3)[Man(a1-6)]Man(b1-4)GlcNAc(b1-4)GlcNAc
# Procedure, shortened: as §1
# [12] = biological target: Neu5Ac(a2-6)Gal(b1-4)GlcNAc(b1-2)Man(a1-3)[Neu5Ac(a2-6)Gal(b1-4)GlcNAc(b1-2)Man(a1-6)]Man(b1-4)GlcNAc(b1-4)GlcNAc
# Procedure, shortened: as §1
# [13] = biological target: Neu5Ac(a2-6)Gal(b1-4)GlcNAc(b1-2)Man(a1-6)Man(b1-4)GlcNAc(b1-4)GlcNAc
# Procedure, shortened: as §1
# [14] = biological target: Neu5Ac(a2-6)Gal(b1-4)GlcNAc(b1-2)Man(a1-6)[Gal(b1-4)GlcNAc(b1-2)Man(a1-3)]Man(b1-4)GlcNAc(b1-4)GlcNAc
# Procedure, shortened: as §1
# [15] = biological target: Neu5Ac(a2-6)Gal(b1-4)GlcNAc(b1-2)Man(a1-6)[GlcNAc(b1-2)Man(a1-3)]Man(b1-4)GlcNAc(b1-4)GlcNAc
# Procedure, shortened: as §1
# [16] = biological target: Neu5Ac(a2-6)Gal(b1-4)GlcNAc(b1-2)Man(a1-6)[Man(a1-3)]Man(b1-4)GlcNAc(b1-4)GlcNAc
# Procedure, shortened: as §1
# [17] = biological target: Neu5Ac(a2-6)Gal(b1-4)GlcNAc(b1-3)Gal(b1-3)GlcNAc
# Procedure, shortened: as §1
# [18] = biological target: Neu5Ac(a2-6)Gal(b1-4)GlcNAc(b1-3)Gal(b1-4)GlcNAc
# Procedure, shortened: as §1
# [19] = biological target: Neu5Ac(a2-6)Gal(b1-4)GlcNAc(b1-3)Gal(b1-4)GlcNAc(b1-3)Gal(b1-4)GlcNAc
# Procedure, shortened: as §1
# [20] = biological target: Neu5Ac(a2-6)Gal(b1-4)GlcNAc(b1-3)Gal(b1-4)[Fuc(a1-3)]GlcNAc(b1-3)Gal(b1-4)[Fuc(a1-3)]GlcNAc
# Procedure, shortened: as §1
# [21] = biological target: Neu5Ac(a2-6)Gal(b1-4)GlcNAc(b1-3)GalNAc
# Procedure, shortened: as §1
# [22] = biological target: Neu5Ac(a2-6)Gal(b1-4)GlcNAc6S
# Procedure, shortened: as §1
# Neu5Ac(a2-6)GalNAc = biological target: Neu5Ac(a2-6)GalNAc
# Procedure, shortened: as §1
# [23] = biological target: Neu5Ac(a2-6)GalNAc(b1-4)GlcNAc
# Procedure, shortened: as §1
# [24] = biological target: Neu5Ac(a2-6)GlcNAc(b1-4)GlcNAc
# Procedure, shortened: as §1
# [25] = biological target: Neu5Ac(a2-6)GlcNAc(b1-4)GlcNAc(b1-4)GlcNAc
# Procedure, shortened: as §1
# Neu5Ac(a2-8)Neu5Ac = biological target: Neu5Ac(a2-8)Neu5Ac
# Procedure, shortened: as §1
# [26] = biological target: Neu5Ac(a2-8)Neu5Ac(a2-3)Gal(b1-3)GalNAc(b1-4)[Neu5Ac(a2-8)Neu5Ac(a2-3)]Gal(b1-4)Glc
# Procedure, shortened: as §1
# [27] = biological target: Neu5Ac(a2-8)Neu5Ac(a2-3)Gal(b1-4)Glc
# Procedure, shortened: as §1
# [28] = biological target: Neu5Ac(a2-8)Neu5Ac(a2-3)[Gal(b1-3)GalNAc(b1-4)]Gal(b1-4)Glc
# Procedure, shortened: as §1
# [29] = biological target: Neu5Ac(a2-8)Neu5Ac(a2-3)[GalNAc(b1-4)]Gal(b1-4)Glc
# Procedure, shortened: as §1
# [30] = biological target: Neu5Ac(a2-8)Neu5Ac(a2-8)Neu5Ac
# Procedure, shortened: as §1
# [31] = biological target: Neu5Ac(a2-8)Neu5Ac(a2-8)Neu5Ac(a2-3)Gal(b1-4)Glc
# Procedure, shortened: as §1
# [32] = biological target: Neu5Ac(a2-8)Neu5Ac(a2-8)Neu5Ac(a2-3)[GalNAc(b1-4)]Gal(b1-4)Glc
# Procedure, shortened: as §1
# [33] = biological target: Neu5Ac(a2-8)Neu5Ac(a2-8)Neu5Ac(a2-8)Neu5Ac(a2-3)[GalNAc(b1-4)]Gal(b1-4)Glc
# Procedure, shortened: as §1
# [34] = biological target: Neu5Ac(b2-6)Gal(b1-4)GlcNAc
# Procedure, shortened: as §1
# Neu5Ac(b2-6)GalNAc = biological target: Neu5Ac(b2-6)GalNAc
# Procedure, shortened: as §1
# [35] = biological target: Neu5Ac9Ac(a2-3)Gal(b1-3)GlcNAc
# Procedure, shortened: as §1
# [36] = biological target: Neu5Ac9Ac(a2-3)Gal(b1-4)GlcNAc
# Procedure, shortened: as §1
# [37] = biological target: Neu5Ac9Ac(a2-6)Gal(b1-4)GlcNAc
# Procedure, shortened: as §1
# [38] = biological target: Neu5Gc(a2-3)Gal(b1-3)GlcNAc
# Procedure, shortened: as §1
# [39] = biological target: Neu5Gc(a2-3)Gal(b1-3)[Fuc(a1-4)]GlcNAc
# Procedure, shortened: as §1
# Neu5Gc(a2-3)Gal(b1-4)Glc = biological target: Neu5Gc(a2-3)Gal(b1-4)Glc
# Procedure, shortened: as §1
# [40] = biological target: Neu5Gc(a2-3)Gal(b1-4)GlcNAc
# Procedure, shortened: as §1
# [41] = biological target: Neu5Gc(a2-3)Gal(b1-4)[Fuc(a1-3)]GlcNAc
# Procedure, shortened: as §1
# [42] = biological target: Neu5Gc(a2-6)Gal(b1-4)GlcNAc
# Procedure, shortened: as §1
# Neu5Gc(a2-6)GalNAc = biological target: Neu5Gc(a2-6)GalNAc
# Procedure, shortened: as §1
# [43] = biological target: Neu5Gc(b2-6)Gal(b1-4)GlcNAc
# Procedure, shortened: as §1
binder,measurement,setting,value
"CV-2L (Chromobacterium violaceum), Q7NX84 (protein) MAQQGVFTLPARINFGVTVLVNSAATQHVEIFVDNEPRAAFSGVGTGDNNLGTKVINSGSGNVRVQITANGRQSDLVSSQLVLANKLNLAVVGSEDGTDMDYNDSIVILNWPLG",glycan array binding signal (z-score),[1],-0.329
same,glycan array binding signal (z-score),[2],-0.335
same,glycan array binding signal (z-score),[3],-0.357
same,glycan array binding signal (z-score),[4],-0.324
same,glycan array binding signal (z-score),Neu5Ac(a2-6)Gal,-0.343
same,glycan array binding signal (z-score),[5],-0.257
same,glycan array binding signal (z-score),Neu5Ac(a2-6)Gal(b1-4)Glc,-0.332
same,glycan array binding signal (z-score),[6],-0.347
same,glycan array binding signal (z-score),[7],-0.361
same,glycan array binding signal (z-score),[8],-0.353
same,glycan array binding signal (z-score),[9],-0.336
same,glycan array binding signal (z-score),[10],-0.323
same,glycan array binding signal (z-score),[11],-0.232
same,glycan array binding signal (z-score),[12],-0.336
same,glycan array binding signal (z-score),[13],-0.335
same,glycan array binding signal (z-score),[14],-0.334
same,glycan array binding signal (z-score),[15],-0.337
same,glycan array binding signal (z-score),[16],-0.017
same,glycan array binding signal (z-score),[17],-0.33
same,glycan array binding signal (z-score),[18],-0.346
same,glycan array binding signal (z-score),[19],-0.341
same,glycan array binding signal (z-score),[20],-0.231
same,glycan array binding signal (z-score),[21],-0.326
same,glycan array binding signal (z-score),[22],-0.351
same,glycan array binding signal (z-score),Neu5Ac(a2-6)GalNAc,-0.334
same,glycan array binding signal (z-score),[23],-0.339
same,glycan array binding signal (z-score),[24],-0.349
same,glycan array binding signal (z-score),[25],-0.35
same,glycan array binding signal (z-score),Neu5Ac(a2-8)Neu5Ac,-0.328
same,glycan array binding signal (z-score),[26],-0.354
same,glycan array binding signal (z-score),[27],-0.351
same,glycan array binding signal (z-score),[28],-0.33
same,glycan array binding signal (z-score),[29],-0.354
same,glycan array binding signal (z-score),[30],-0.349
same,glycan array binding signal (z-score),[31],-0.332
same,glycan array binding signal (z-score),[32],-0.327
same,glycan array binding signal (z-score),[33],-0.348
same,glycan array binding signal (z-score),[34],-0.331
same,glycan array binding signal (z-score),Neu5Ac(b2-6)GalNAc,-0.349
same,glycan array binding signal (z-score),[35],-0.322
same,glycan array binding signal (z-score),[36],-0.359
same,glycan array binding signal (z-score),[37],-0.331
same,glycan array binding signal (z-score),[38],-0.344
same,glycan array binding signal (z-score),[39],0.624
same,glycan array binding signal (z-score),Neu5Gc(a2-3)Gal(b1-4)Glc,-0.346
same,glycan array binding signal (z-score),[40],-0.332
same,glycan array binding signal (z-score),[41],-0.317
same,glycan array binding signal (z-score),[42],-0.326
same,glycan array binding signal (z-score),Neu5Gc(a2-6)GalNAc,-0.343
same,glycan array binding signal (z-score),[43],-0.328
